This is one part of the list. At the low end of the ranking the order means little.

The target of this experiment is GST-SBP-SLBP (stem-loop binding protein) (UniProt Q14493). Description: targeted RNA Bind-n-Seq.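 Also: DESeq read counts versus GST-SBP nonspecific binding control pulldown.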 As to conditions: RBNS binding buffer: 25 mM Tris pH 7.5, 150 mM KCl, 3 mM MgCl2, 0.1% Tween, 0.5 mg/mL BSA, 1 mM DTT; 27 nM protein, 750 pM RNA pool; temperature not stated; high values mean tight binding.
“GGUCACGUCUCAAUCAACUCAGUUUCCAGGGAAAUCCCUGGUUUAUUCAACAGCUCGCAGUCAAG”: the binding signal (log2 fold change) was 0.33.
In the case of “GGUCACGUCUCAAUCAACUCUUUCCCAGGAGUUUACUCCUGCAUUCUCAACAGCUCGCAGUCAAG”, the binding signal (log2 fold change) was determined as 0.206.
Take “GGUCACGUCUCAAUCAACUCAUAAGAGGGGGGGAAAACCCCUUUGCCCUCAUACUCAACAGCUCGCAGUCAAG”: the binding signal (log2 fold change) was determined as 0.0461.
On to “GGUCACGUCUCAAUCAACUCUUCUCCCAGGGAAAACCCUGGCAUUCUCAACAGCUCGCAGUCAAG”, for which the binding signal (log2 fold change) was determined as 0.171.
On to “GGUCACGUCUCAAUCAACUCUUCGGCAGGAGUUUUCUCCUGGAAUUUCAACAGCUCGCAGUCAAG”, for which the binding signal (log2 fold change) is -0.021.
Regarding “GGUCACGUCUCAAUCAACUCUUAGGAGGGGGGGAAAACCCCUUUACCCUCAUUCUCAACAGCUCGCAGUCAAG”, the binding signal (log2 fold change) is -0.223.
The same measure for “GGUCACGUCUCAAUCAACUCAACUUCAGGAGUUUACUCCUGCUAAUUCAACAGCUCGCAGUCAAG”: 0.294; for “GGUCACGUCUCAAUCAACUCAUUCCCAGGAGUUUUCUCCUGCAAUUUCAACAGCUCGCAGUCAAG”: 0.209.
Next, “GGUCACGUCUCAAUCAACUCAUCUUCAGGAGUUUUCUCCUGCUUAUUCAACAGCUCGCAGUCAAG”: 0.0542; “GGUCACGUCUCAAUCAACUCAAUCCCAGGAGUUUACUCCUGCAAACUCAACAGCUCGCAGUCAAG”: 0.251; “GGUCACGUCUCAAUCAACUCAUCGUCAGGAGUUUCCUCCUGCUUUCUCAACAGCUCGCAGUCAAG”: 0.0538.
Take “GGUCACGUCUCAAUCAACUCAACUCCAGGAGUUUUCUCCUGCUAUCUCAACAGCUCGCAGUCAAG”: the binding signal (log2 fold change) amounted to 0.28.
Next, “GGUCACGUCUCAAUCAACUCUUUUUCAGGAGUUUACUCCUGUUAUCUCAACAGCUCGCAGUCAAG”: 0.073.
The same measure for “GGUCACGUCUCAAUCAACUCAUCGCCAGGAGUUUCCUCCUGCUAAUUCAACAGCUCGCAGUCAAG”: -0.122; for “GGUCACGUCUCAAUCAACUCAUUCCCCAGGGAAAACCCUGGCUUACUCAACAGCUCGCAGUCAAG”: 0.0164; for “GGUCACGUCUCAAUCAACUCUAUUUCCAGGGAAAGCCCUGGCGUAUUCAACAGCUCGCAGUCAAG”: -0.253.
The same measure for “GGUCACGUCUCAAUCAACUCUCUCGAGGGGGGGAAAACCCCUUUGCCCUCAUCAUCAACAGCUCGCAGUCAAG”: -0.145; for “GGUCACGUCUCAAUCAACUCAUCGUCAGGAGUUUUCUCCUGCAAAUUCAACAGCUCGCAGUCAAG”: -0.0376.
For “GGUCACGUCUCAAUCAACUCUAGUCCCAGGGAAAGCCCUGGCUUUUUCAACAGCUCGCAGUCAAG”, the binding signal (log2 fold change) was 0.0629.
“GGUCACGUCUCAAUCAACUCAUCUCCCAGGGAAAGCCCUGGCAUACUCAACAGCUCGCAGUCAAG”: the binding signal (log2 fold change) turned out to be 0.113.
Regarding “GGUCACGUCUCAAUCAACUCAUGUCCAGGAGUUUCCUCCUGUAUUUUCAACAGCUCGCAGUCAAG”, the binding signal (log2 fold change) was -0.254.
As to “GGUCACGUCUCAAUCAACUCUAACGAGGGGGGGAAAACCCCUUUACCCUCAACAUCAACAGCUCGCAGUCAAG”, the binding signal (log2 fold change) amounted to 0.268.
With “GGUCACGUCUCAAUCAACUCAACUUCCAGGGAAACCCCUGGUAUUUUCAACAGCUCGCAGUCAAG”, the binding signal (log2 fold change) stood at 0.183.
As to “GGUCACGUCUCAAUCAACUCCACAGAGGGGGGGAAAACCCCUUUACCCUCACUCUCAACAGCUCGCAGUCAAG”, the binding signal (log2 fold change) was -0.0607.
Turning to “GGUCACGUCUCAAUCAACUCCUAAGAGGGGGGGAAAACCCCUUUGCCCUCACUUUCAACAGCUCGCAGUCAAG”, the binding signal (log2 fold change) was 0.38.
Turning to “GGUCACGUCUCAAUCAACUCAUCUUCAGGAGUUUUCUCCUGCAUUUUCAACAGCUCGCAGUCAAG”, the binding signal (log2 fold change) was 0.00132.
For “GGUCACGUCUCAAUCAACUCCUUCGAGGGGGGGAAAACCCCUUUACCCUCAUCCUCAACAGCUCGCAGUCAAG”, the binding signal (log2 fold change) is 0.0926.
With “GGUCACGUCUCAAUCAACUCAUCGCCCAGGGAAAGCCCUGGUUUUUUCAACAGCUCGCAGUCAAG”, the binding signal (log2 fold change) is -0.372.
For “GGUCACGUCUCAAUCAACUCAACUCCAGGAGUUUGCUCCUGCUAUUUCAACAGCUCGCAGUCAAG”, the binding signal (log2 fold change) worked out at 0.0139.
On to “GGUCACGUCUCAAUCAACUCAACUCCAGGAGUUUUCUCCUGCAAACUCAACAGCUCGCAGUCAAG”, for which the binding signal (log2 fold change) was -0.0582.
“GGUCACGUCUCAAUCAACUCAUUCUCCAGGGAAAUCCCUGGCUUAGUCAACAGCUCGCAGUCAAG”: the binding signal (log2 fold change) was -0.0531.
For the sequence “GGUCACGUCUCAAUCAACUCAACUCCCAGGGAAAACCCUGGUAAACUCAACAGCUCGCAGUCAAG”, the binding signal (log2 fold change) was -0.154.
“GGUCACGUCUCAAUCAACUCUUUUUCAGGAGUUUGCUCCUGCAUAUUCAACAGCUCGCAGUCAAG”: the binding signal (log2 fold change) was -0.114.
Next, “GGUCACGUCUCAAUCAACUCUUUCUCCAGGGAAACCCCUGGUUAUGUCAACAGCUCGCAGUCAAG”: 0.226; “GGUCACGUCUCAAUCAACUCAUUCUCAGGAGUUUUCUCCUGCUAACUCAACAGCUCGCAGUCAAG”: 0.0174.
Next, “GGUCACGUCUCAAUCAACUCAUCUUCCAGGGAAACCCCUGGUAUACUCAACAGCUCGCAGUCAAG”: 0.22; “GGUCACGUCUCAAUCAACUCAAUAGAGGGGGGGAAAACCCCUUUGCCCUCCAAAUCAACAGCUCGCAGUCAAG”: 0.191; “GGUCACGUCUCAAUCAACUCCCACGAGGGGGGGAAAACCCCUUUACCCUCAAUUUCAACAGCUCGCAGUCAAG”: 0.12.
As to “GGUCACGUCUCAAUCAACUCCUCCGAGGGGGGGAAAACCCCUUUACCCUCAUAUUCAACAGCUCGCAGUCAAG”, the binding signal (log2 fold change) was -0.324.
Regarding “GGUCACGUCUCAAUCAACUCUUUCUCAGGAGUUUCCUCCUGCUAACUCAACAGCUCGCAGUCAAG”, the binding signal (log2 fold change) was 0.147.
Next, “GGUCACGUCUCAAUCAACUCUUCUUCCAGGGAAAACCCUGGUUAUUUCAACAGCUCGCAGUCAAG”: -0.18; “GGUCACGUCUCAAUCAACUCAUCUCCCAGGGAAACCCCUGGUAUUUUCAACAGCUCGCAGUCAAG”: 0.247; “GGUCACGUCUCAAUCAACUCAUUCCCAGGAGUUUGCUCCUGCUUAUUCAACAGCUCGCAGUCAAG”: -0.0249.
Next, “GGUCACGUCUCAAUCAACUCAAUUUCCAGGGAAACCCCUGGCUAUUUCAACAGCUCGCAGUCAAG”: -0.0455; “GGUCACGUCUCAAUCAACUCUUUUUCAGGAGUUUCCUCCUGUUUAUUCAACAGCUCGCAGUCAAG”: -0.0666; “GGUCACGUCUCAAUCAACUCACUAGAGGGGGGGAAAACCCCUUUGCCCUCGUAUUCAACAGCUCGCAGUCAAG”: -0.254.
Next, “GGUCACGUCUCAAUCAACUCAAUCUCAGGAGUUUACUCCUGCUAACUCAACAGCUCGCAGUCAAG”: 0.00855; “GGUCACGUCUCAAUCAACUCUUUUCCAGGAGUUUCCUCCUGCUUAUUCAACAGCUCGCAGUCAAG”: 0.0117; “GGUCACGUCUCAAUCAACUCUUCCUCCAGGGAAAACCCUGGUUAUGUCAACAGCUCGCAGUCAAG”: -0.163.
For “GGUCACGUCUCAAUCAACUCAAUUUCAGGAGUUUCCUCCUGUAUAGUCAACAGCUCGCAGUCAAG”, the binding signal (log2 fold change) came out at 0.0622.
The same measure for “GGUCACGUCUCAAUCAACUCAUUUCCAGGAGUUUACUCCUGUAUAUUCAACAGCUCGCAGUCAAG”: 0.24.
For “GGUCACGUCUCAAUCAACUCAGUCCCAGGAGUUUACUCCUGCAAUCUCAACAGCUCGCAGUCAAG”, the binding signal (log2 fold change) is -0.0524.
Consider “GGUCACGUCUCAAUCAACUCAAUCGAGGGGGGGAAAACCCCUUUGCCCUCAUAAUCAACAGCUCGCAGUCAAG”, for which the binding signal (log2 fold change) is -0.0231.
In the case of “GGUCACGUCUCAAUCAACUCAACUUCCAGGGAAAUCCCUGGCUAUCUCAACAGCUCGCAGUCAAG”, the binding signal (log2 fold change) is -0.156.
The same measure for “GGUCACGUCUCAAUCAACUCAAUCUCCAGGGAAAUCCCUGGCAAUUUCAACAGCUCGCAGUCAAG”: -0.0249; for “GGUCACGUCUCAAUCAACUCUUUCCCAGGAGUUUUCUCCUGUUAUCUCAACAGCUCGCAGUCAAG”: 0.081.
Next, “GGUCACGUCUCAAUCAACUCUUCUUCAGGAGUUUUCUCCUGUAUACUCAACAGCUCGCAGUCAAG”: 0.09.
With “GGUCACGUCUCAAUCAACUCUUCCUCAGGAGUUUACUCCUGCAUACUCAACAGCUCGCAGUCAAG”, the binding signal (log2 fold change) is 0.0409.
“GGUCACGUCUCAAUCAACUCAUUUCCAGGAGUUUUCUCCUGUAUUCUCAACAGCUCGCAGUCAAG”: the binding signal (log2 fold change) is -0.00867.
“GGUCACGUCUCAAUCAACUCCAAAGAGGGGGGGAAAACCCCUUUGCCCUCACCAUCAACAGCUCGCAGUCAAG”: the binding signal (log2 fold change) is -0.212.
As for “GGUCACGUCUCAAUCAACUCUUCUUCAGGAGUUUCCUCCUGCAAACUCAACAGCUCGCAGUCAAG”, the binding signal (log2 fold change) came out at 0.0748.
As for “GGUCACGUCUCAAUCAACUCCCUAGAGGGGGGGAAAACCCCUUUACCCUCAAUCUCAACAGCUCGCAGUCAAG”, the binding signal (log2 fold change) stood at 0.118.
In the case of “GGUCACGUCUCAAUCAACUCAUUAGAGGGGGGGAAAACCCCUUUACCCUCCAUUUCAACAGCUCGCAGUCAAG”, the binding signal (log2 fold change) was -0.276.
The same measure for “GGUCACGUCUCAAUCAACUCUAUGUCAGGAGUUUCCUCCUGUUAAUUCAACAGCUCGCAGUCAAG”: -0.199; for “GGUCACGUCUCAAUCAACUCAAUCCCAGGAGUUUCCUCCUGUUAUUUCAACAGCUCGCAGUCAAG”: 0.129.
On to “GGUCACGUCUCAAUCAACUCAUCCGCAGGAGUUUUCUCCUGGUAAUUCAACAGCUCGCAGUCAAG”, for which the binding signal (log2 fold change) came out at 0.138.
On to “GGUCACGUCUCAAUCAACUCAUCCCCCAGGGAAACCCCUGGUAUACUCAACAGCUCGCAGUCAAG”, for which the binding signal (log2 fold change) turned out to be 0.0408.
Regarding “GGUCACGUCUCAAUCAACUCAUCUUCCAGGGAAAGCCCUGGCUAACUCAACAGCUCGCAGUCAAG”, the binding signal (log2 fold change) is -0.127.
Take “GGUCACGUCUCAAUCAACUCUAUUUCCAGGGAAAGCCCUGGCUAAUUCAACAGCUCGCAGUCAAG”: the binding signal (log2 fold change) was -0.294.
On to “GGUCACGUCUCAAUCAACUCAUCUUCCAGGGAAAGCCCUGGCAAACUCAACAGCUCGCAGUCAAG”, for which the binding signal (log2 fold change) was -0.14.
Regarding “GGUCACGUCUCAAUCAACUCAAUCCCCAGGGAAAGCCCUGGCUAUCUCAACAGCUCGCAGUCAAG”, the binding signal (log2 fold change) was -0.203.
As for “GGUCACGUCUCAAUCAACUCUUUCGCAGGAGUUUCCUCCUGGUUAUUCAACAGCUCGCAGUCAAG”, the binding signal (log2 fold change) was -0.0225.
As to “GGUCACGUCUCAAUCAACUCAAUUCCAGGAGUUUCCUCCUGCUAUCUCAACAGCUCGCAGUCAAG”, the binding signal (log2 fold change) is -0.0201.
The same measure for “GGUCACGUCUCAAUCAACUCCCUAGAGGGGGGGAAAACCCCUUUACCCUCAUCAUCAACAGCUCGCAGUCAAG”: -0.151.

The values are drawn from publication PMC5892938.
